{
  "source": "PubChem BioAssay AID485364",
  "about": "(National Center for Advancing Translational Sciences (NCATS), 2010)",
  "note": "About 11,000 (3.1%) of roughly 360,000 compounds were called active. Inconclusive means that the source gave no clear call. Such entries were picked first, then a sample of the others. Calls come from the whole dose curve; as a rule, active = well fitted inhibition curve with a large enough effect; inconclusive = small, poorly fitted or top-dose-only effect; inactive = no such curve, though single readings can be large or run the other way. Potencies of inconclusive entries are left out as doubtful fits. % is set by controls: 0 for no effect and ±100 for the full control effect; potency is the fitted concentration of half-maximal effect; tags give direction and shape of the fitted curve.",
  "data": [
    {"biological_target": "Schistosoma mansoni thioredoxin glutathione reductase (TGR) (UniProt Q962Y6)", "assay": "qHTS Assay for the Inhibitors of Schistosoma Mansoni Peroxiredoxins; note: nearly all actives have a fitted effect of over 60% in size", "conditions": "purified TGR, DTNB reduction, TNB absorbance 405 nm; activity change, negative = inhibition: at 114 µM (top of the series) unless noted", "how_it_was_run": "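TGR 20 nM + NADPH 100 uM (dispensed conc.), cpd preinc 15 min RT; start with NADPH (500 uM addition) then DTNB (15 mM addition). Kinetic TNB absorbance, 405 nm filter. Four-parameter Hill fit across titration.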", "values": [
      {"smiles": "O=C(Nc1cccc([N+](=O)[O-])c1)NC1CCCCCCC1", "Potency": "inconclusive [inhibitor, full curve, poor fit]"},
      {"smiles": "Cc1ccc(C)c(S(=O)(=O)NCc2ccc(C(=O)NCc3ccccn3)cc2)c1", "activity change, negative = inhibition": "inactive: 6.27%"},
      {"smiles": "Cc1c2cnn(CC(=O)NC(C)C)c(=O)c2c(C)n1Cc1cccc(Cl)c1", "activity change, negative = inhibition": "inactive: -1.5%"},
      {"smiles": "O=C(COC(=O)CNC(=O)c1ccc(Cl)cc1)Nc1cccc(S(=O)(=O)N2CCCC2)c1", "activity change, negative = inhibition": "inactive: 0.712%"},
      {"smiles": "COc1ccc(C)cc1NC(=O)NCCC1=CCCCC1", "activity change, negative = inhibition": "inactive: 3.92%"},
      {"smiles": "CC1(C)OC(=O)C(=CNn2cnc3ccccc3c2=O)C(=O)O1", "activity change, negative = inhibition": "inactive: -14.2%"},
      {"smiles": "Cc1cc2c(ncn2C(C)C)c(N)c1C", "activity change, negative = inhibition": "inactive: -1.95%"},
      {"smiles": "CCCCn1nnnc1SCC(=O)N1CCCC1", "activity change, negative = inhibition": "inactive: -11%"},
      {"smiles": "Cc1ccc(-c2nc(CS(=O)CC(=O)NC3CC3)c(C)o2)cc1", "note": "(centres undefined)", "Potency": "inconclusive [inhibitor, partial curve]"},
      {"smiles": "CCNC(=S)Nc1cc(OC)c(NC(=O)c2ccco2)cc1OC", "Potency": "inconclusive [inhibitor, partial curve]"},
      {"smiles": "Cc1ccc(CNC(=O)c2ccc(Cn3c(SCc4ccc(F)cc4)nc4cccnc43)cc2)o1", "Potency": "inconclusive [inhibitor, full curve, poor fit]"},
      {"smiles": "O=C(Nc1ccc(F)cc1)Nc1cccnc1Cl", "activity change, negative = inhibition": "inactive: 17.3%"},
      {"smiles": "Cc1ccc(C2CC(=O)c3cnc(NC(=O)c4ccco4)nc3C2)cc1", "note": "(centres undefined)", "Potency": "inconclusive [inhibitor, full curve]"},
      {"smiles": "Cc1cccc(-c2cc3nc(C)cc(NCCCN(C)C)n3n2)c1", "activity change, negative = inhibition": "inactive: 3.45%"},
      {"smiles": "COc1ccc(S(=O)(=O)N2CCN(CC(=O)c3ccc(O)c(O)c3)CC2)cc1", "Potency": "active: 20 µM"},
      {"smiles": "Cc1ccc2oc(C(=O)NCc3ncc(C)[nH]3)c(C)c2c1", "activity change, negative = inhibition": "inactive: -26.2%"},
      {"smiles": "Oc1cc2ccccc2cc1-c1n[nH]c(=S)n1Cc1ccco1", "Potency": "inconclusive [inhibitor, single point]"},
      {"smiles": "CCOC(=O)c1cc2occc2n1CC(=O)NC1CCCCC1C", "note": "(centres undefined)", "Potency": "inconclusive [inhibitor, partial curve]"},
      {"smiles": "Oc1ccc(N2CCN(C(c3ccccn3)c3nnnn3C3CCCC3)CC2)cc1", "note": "(centres undefined)", "Potency": "inconclusive [inhibitor, partial curve, poor fit]"},
      {"smiles": "C/C(=N\\N=C(/N)c1nonc1N)c1ccc2c(c1)OCO2", "activity change, negative = inhibition": "inactive: 1.62%"},
      {"smiles": "O=C(NC1CCCC1)c1cccc2c1C(=O)c1ccc(/C=C/c3ccccc3)cc1S2(=O)=O", "Potency": "inconclusive [inhibitor, partial curve]"},
      {"smiles": "O=c1c2ccccc2nnn1CSc1nnnn1-c1ccc(O)cc1", "Potency": "inconclusive [inhibitor, partial curve]"},
      {"smiles": "COc1ccc(N2CCN(C(=O)CSc3nnc(C)c(=O)[nH]3)CC2)cc1", "Potency": "inconclusive [inhibitor, full curve]"},
      {"smiles": "Cc1cc(C)c(NC(=O)Cn2c(=O)n(CC3CCCO3)c(=O)c3ccccc32)c(C)c1", "note": "(centres undefined)", "activity change, negative = inhibition": "inactive: -2.76%"},
      {"smiles": "O=C(Nc1cccc(O)c1)N1CCOCC1", "Potency": "inconclusive [inhibitor, partial curve]"},
      {"smiles": "CCN1C(=O)S/C(=C\\c2ccc(N3CCOCC3)cc2C)C1=O", "activity change, negative = inhibition": "inactive: 1.28%"},
      {"smiles": "NC(=O)c1ccsc1NC(=O)c1ccco1", "Potency": "active: 44.7 µM"},
      {"smiles": "N#CC1=C(N)C(C#N)(C#N)C(c2cccnc2)C2CN(C(=O)OCc3ccccc3)CC=C12", "note": "(centres undefined)", "Potency": "inconclusive [inhibitor, partial curve, poor fit]"},
      {"smiles": "CC1=C(C)C(OCCBr)N(c2cc(O)c(Cl)cc2F)C1=O", "note": "(centres undefined)", "Potency": "active: 28.2 µM"},
      {"smiles": "CC(C)NC(=O)NC(=O)CN1C(=O)NC(Cc2c[nH]c3ccccc23)C1=O", "note": "(centres undefined)", "activity change, negative = inhibition": "inactive: 22.1%"},
      {"smiles": "CCc1ccc(-n2cc(-c3ccc(F)cc3)[n+]3c2SCCC3)cc1", "activity change, negative = inhibition": "inactive: 1.54%"},
      {"smiles": "O=C(NCc1ccccc1)C(=O)NCC(c1cccs1)S(=O)(=O)c1cccs1", "note": "(centres undefined)", "Potency": "inconclusive [inhibitor, partial curve]"},
      {"smiles": "CCN(C(=O)c1ccc(S(=O)(=O)N2CCCCC2)cc1)C1CCS(=O)(=O)C1", "note": "(centres undefined)", "activity change, negative = inhibition": "inactive: 5.06%"},
      {"smiles": "O=C(CN1C(=O)S/C(=C\\C=C\\c2ccccc2)C1=O)NC1CCS(=O)(=O)C1", "note": "(centres undefined)", "Potency": "inconclusive [inhibitor, partial curve, poor fit]"},
      {"smiles": "CN1CCc2c(sc3c2c(=O)n(-c2ccccc2)c2nnc(SCc4ccccc4)n32)C1", "Potency": "inconclusive [inhibitor, partial curve]"},
      {"smiles": "[N-]=[N+]=CC(=O)c1ccnc(C(=O)C=[N+]=[N-])c1", "Potency": "inconclusive [inhibitor, partial curve]"},
      {"smiles": "CN(C)c1ccc(/C=C2\\C(=O)NC(=O)N(CCc3ccc(F)cc3)C2=O)cc1", "Potency": "active: 3.98 µM"},
      {"smiles": "CN(C)C(=O)c1cc(C(=O)c2ccc(Cl)cc2Cl)c[nH]1", "activity change, negative = inhibition": "inactive: -7.34%"},
      {"smiles": "COc1cccc(CN2CCNC(=O)C2CC(=O)NC2CCCCC2)c1OC", "note": "(centres undefined)", "Potency": "active: 44.7 µM"},
      {"smiles": "O=c1[nH]c(SCc2ccccc2)nc2[nH]ncc12", "activity change, negative = inhibition": "inactive: 2.65%"},
      {"smiles": "CCOC(=O)c1c(-c2ccc(C)o2)csc1NC(=O)CSc1nnnn1-c1ccccc1", "Potency": "active: 5.62 µM"},
      {"smiles": "CC(=O)N(C)c1ccc(NC(=S)NC(=O)/C=C/c2ccco2)cc1", "Potency": "active: 28.2 µM"},
      {"smiles": "Cc1[nH]c2ccccc2c1SCc1nnc(SCc2ccccc2)n1C", "Potency": "inconclusive [inhibitor, single point]"},
      {"smiles": "O=C(NC(C(=O)c1ccccc1)n1c(=O)cc[nH]c1=S)c1ccccc1", "note": "(centres undefined)", "Potency": "inconclusive [inhibitor, single point]"},
      {"smiles": "CCCC1(c2ccccc2)NC(=O)N(CC(=O)NCc2ccc(C)cc2)C1=O", "note": "(centres undefined)", "Potency": "inconclusive [inhibitor, single point]"},
      {"smiles": "Cc1cc(C)cc(NS(=O)(=O)c2c(C)nc3scc(C)n3c2=O)c1", "Potency": "inconclusive [inhibitor, single point]"},
      {"smiles": "O=c1cc(CN2CCN(Cc3ccc(F)cc3)C(CCO)C2)[nH]c2ccccc12", "note": "(centres undefined)", "Potency": "inconclusive [inhibitor, partial curve]"},
      {"smiles": "CCOC(=O)c1cc(C)n(CC2CCC(C(=O)Nc3ccc(OC)c(OC)c3)CC2)c1C", "note": "(centres undefined)", "activity change, negative = inhibition": "inactive: 43.4%"},
      {"smiles": "COc1cc(C(=O)N2CCN(S(=O)(=O)c3cccc(F)c3)CC2)ccc1OCC(=O)N1CCOCC1", "activity change, negative = inhibition": "inactive: 4.42%"},
      {"smiles": "CC(=O)/C(=N/Nc1ccccc1C)N1CCOCC1", "Potency": "inconclusive [inhibitor, partial curve]"},
      {"smiles": "Cc1cc(OCC(F)(F)C(F)(F)C(F)(F)C(F)(F)C(F)(F)C(F)F)nc(N)n1", "Potency": "inconclusive [inhibitor, partial curve, poor fit]"},
      {"smiles": "O=C(O)C1Nc2c(Cl)cc(Cl)cc2C2C=CCC12", "note": "(centres undefined)", "Potency": "inconclusive [inhibitor, full curve, poor fit]"},
      {"smiles": "Cc1c(O)ccc2c(CC(=O)N[C@@H](Cc3c[nH]c4ccccc34)C(=O)O)cc(=O)oc12", "Potency": "inconclusive [inhibitor, full curve, poor fit]"},
      {"smiles": "O=C(CN1CCN(Cc2ccccc2)CC1)N/N=C/C=C/c1ccco1", "Potency": "inconclusive [inhibitor, partial curve]"},
      {"smiles": "CCn1ccc2cc(S(=O)(=O)N3CCC(C(=O)NCC(C)c4ccccc4)CC3)ccc21", "note": "(centres undefined)", "activity change, negative = inhibition": "inactive: 2.62%"},
      {"smiles": "Cc1ccc(NCc2cc3cc4c(cc3n(CC(=O)Nc3ccc(F)cc3F)c2=O)OCCO4)cc1", "Potency": "inconclusive [inhibitor, partial curve]"},
      {"smiles": "Cc1ccc(NC(=S)Nc2c(C)n(C)n(-c3ccccc3)c2=O)cc1Cl", "Potency": "inconclusive [inhibitor, partial curve]"},
      {"smiles": "Cc1cc(F)ccc1S(=O)(=O)Nc1nc2ccccc2nc1Cl", "Potency": "inconclusive [inhibitor, partial curve]"},
      {"smiles": "Oc1c(Br)cc(Br)c(/C=N/n2c(-c3ccccc3)n[nH]c2=S)c1Br", "Potency": "inconclusive [inhibitor, partial curve, poor fit]"},
      {"smiles": "Cc1cc(C)n2nc(C(=O)Nc3ccc4c(c3)OCO4)cc2n1", "activity change, negative = inhibition": "inactive: -1.87%"},
      {"smiles": "COc1ccc(CCNC(=O)C(=O)NCC(c2cccs2)S(=O)(=O)c2cccs2)cc1", "note": "(centres undefined)", "Potency": "active: 28.2 µM"},
      {"smiles": "c1ccc(NC(c2ccccc2)c2ccncc2)cc1", "note": "(centres undefined)", "Potency": "inconclusive [inhibitor, partial curve]"},
      {"smiles": "C=C(C)C(=O)N1CC2(CC(c3cccc(NC(=O)/C(C)=C\\C)c3)=NO2)C[C@H]1C(N)=O", "note": "(some centres undefined)", "activity change, negative = inhibition": "inactive: -9.78%"},
      {"smiles": "Cc1onc(-c2ccccc2)c1C(=O)OCCOc1ccccc1F", "activity change, negative = inhibition": "inactive: 6.08%"},
      {"smiles": "Cn1sc(=O)c2cc(S(=O)(=O)NC3CC3)ccc21", "Potency": "active: 1.58 µM"},
      {"smiles": "COc1ccc(OC)c(CNC(=O)C2CCN(S(=O)(=O)N3CCCC3)CC2)c1", "Potency": "active: 79.4 µM"},
      {"smiles": "Nc1ccc2c(c1)C/C(=C/c1ccco1)C2=O", "Potency": "active: 15.8 µM"},
      {"smiles": "O=C(Nc1ccccc1C(F)(F)F)c1cc2nc(-c3ccccc3)cc(-c3ccccc3)n2n1", "Potency": "inconclusive [inhibitor, single point]"},
      {"smiles": "CC1(C)Oc2ccc3ccc(=O)oc3c2C(N2CCCCC2)C1O", "note": "(centres undefined)", "Potency": "active: 35.5 µM"},
      {"smiles": "O=C1Nc2ccccc2C1Cc1nc2ccccc2c(=O)n1-c1ccccc1", "note": "(centres undefined)", "activity change, negative = inhibition": "inactive: -0.505%"},
      {"smiles": "N#CC1=C(N)C(C#N)(C#N)[C@H](c2c(F)cccc2F)[C@H]2CC3(CC=C12)OCCO3", "Potency": "inconclusive [inhibitor, single point]"},
      {"smiles": "O=C1c2cccc3c(O)ccc(c23)C(=O)N1c1ccc(Cl)cc1", "Potency": "active: 25.1 µM"},
      {"smiles": "CCOc1ccc(CN2CCNC(=O)C2CC(=O)NCCc2ccccn2)cc1", "note": "(centres undefined)", "Potency": "inconclusive [inhibitor, partial curve]"},
      {"smiles": "O=C(NCCN1C(=O)S/C(=C\\c2cccnc2)C1=O)C1CC(=O)N(Cc2ccco2)C1", "note": "(centres undefined)", "Potency": "inconclusive [inhibitor, partial curve]"}
    ]}
  ]
}
